{
  "source": "PubChem BioAssay AID504832",
  "about": "(National Center for Advancing Translational Sciences (NCATS), 2011)",
  "note": "The campaign covered roughly 310,000 compounds. About 18,000 (5.8%) were called active. The inconclusive results got no clear call from the source; some entries with a clear call stand among them for comparison. The call rests on the fitted dose curve; in most records, active means well fitted inhibition curve with a large enough effect; inconclusive means small, poorly fitted or top-dose-only effect, or another doubt; inactive means no such curve, though single readings can be large or run the other way. No potency is given beside an inconclusive call; the fits are too rough. On the % scale 0 is the no-effect control and ±100 the full control effect; potency means the concentration at half of the fitted maximal effect; tags describe the fitted curve by direction and shape.",
  "data": [
    {"assay": "Primary qHTS for delayed death inhibitors of the malarial parasite plastid, 48 hour incubation", "conditions": "P. falciparum luciferase growth in erythrocytes; series mostly up to 28.7 µM; activity change, negative = inhibition: at the top concentration", "outline": "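A one-generation exposure of luciferase-tagged malaria parasites in RPMI 1640/Albumax erythrocyte culture, 37 C and 5% CO2. Inhibition is inferred from decreased luminescence after adding detection reagent.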", "values": [
      {"smiles": "COc1ccc(-c2nc(=S)c3c([nH]2)Oc2ccc(C)cc2C3)cc1O", "activity change, negative = inhibition": "inactive: -1.44%"},
      {"smiles": "Cc1ccc(S(=O)(=O)N(C)C)cc1NC(=S)NC12CC3CC(CC(C3)C1)C2", "Potency": "inconclusive [inhibitor, partial curve, poor fit]"},
      {"smiles": "c1ccc(C[C@H]2CNCCN2CC2CCCCC2)cc1", "Potency": "inconclusive [inhibitor, single point]"},
      {"smiles": "CCOC(=O)N1CCN(C(=O)CCCCCn2c(=S)[nH]c3ccsc3c2=O)CC1", "Potency": "inconclusive [inhibitor, single point]"},
      {"smiles": "c1ccc(COC(CN2CCCCCC2)CN2CCCCCC2)cc1", "Potency": "inconclusive [inhibitor, single point]"},
      {"smiles": "COc1cc(C(=O)OCc2cccc(OC)c2OC)ccc1OCC(=O)N1CCOCC1", "Potency": "inconclusive [inhibitor, single point]"},
      {"smiles": "COc1ccc(OCC(O)CN(CCO)CC(O)Cn2ccc3ccccc32)cc1", "note": "(stereo unspecified)", "Potency": "inconclusive [inhibitor, partial curve, poor fit]"},
      {"smiles": "COc1ccccc1NC(=O)COc1ccc(Br)cc1CNC1CCCC1", "Potency": "active: 11.7 µM"},
      {"smiles": "COc1ccc(CN(Cc2cccnc2)C(=S)NCCc2ccccc2)cc1OC", "Potency": "inconclusive [inhibitor, partial curve]"},
      {"smiles": "O=c1ccc2c(-c3ccccc3S(=O)(=O)O)c3ccc(O)c(O)c3oc-2c1O", "Potency": "inconclusive [inhibitor, single point]"},
      {"smiles": "Oc1c(Br)cc(Br)cc1C=Nc1cccnc1", "Potency": "inconclusive [inhibitor, full curve, poor fit]"},
      {"smiles": "O=C(Cn1cc(C(F)(F)F)cc(Cl)c1=O)NCCc1ccc(Cl)cc1Cl", "Potency": "inconclusive [inhibitor, single point]"},
      {"smiles": "NC(=O)C1CCN(c2nc(-c3cccc(F)c3)cs2)CC1", "Potency": "inconclusive [inhibitor, single point]"},
      {"smiles": "CCOc1ccc(CN2C(=O)c3ccccc3Sc3ccc(C(=O)NCCCN4CCOCC4)cc32)cc1", "Potency": "inconclusive [inhibitor, single point]"},
      {"smiles": "O=C(NCCN1CCCC1)c1cc(-c2ccncc2)nc2ccc(S(=O)(=O)N3CCOCC3)cc12", "Potency": "active: 11.7 µM"},
      {"smiles": "COCc1ccc(-c2ccc3c(c2)c(C#Cc2ccsc2)c(-c2cc(OC)cc(OC)c2)n3C)cc1", "Potency": "inconclusive [inhibitor, partial curve]"},
      {"smiles": "CCn1c(SCC(=O)Nc2ccccc2OC)nc(O)cc1=O", "activity change, negative = inhibition": "inactive: 22.3%"},
      {"smiles": "Cc1cccnc1NC(=O)c1ccc(NS(=O)(=O)/C=C/c2ccccc2)cc1", "Potency": "inconclusive [inhibitor, partial curve]"},
      {"smiles": "COc1ccc(NC(C)=O)cc1S(=O)(=O)Nc1ccc2c(c1)OCCO2", "activity change, negative = inhibition": "inactive: 44.7%"},
      {"smiles": "O=C(Cc1ccccc1)N1CCN(S(=O)(=O)c2ccc([N+](=O)[O-])cc2)CC1", "Potency": "inconclusive [inhibitor, partial curve, poor fit]"},
      {"smiles": "Nc1nc(NCCCN2CCOCC2)nc(Nc2ccc(F)cc2)c1[N+](=O)[O-]", "Potency": "active: 13.1 µM"},
      {"smiles": "Cn1cccc1C(=O)OCC(=O)NC1CCS(=O)(=O)C1", "note": "(stereo unspecified)", "Potency": "active: 1.47 µM"},
      {"smiles": "O=C(O)COc1ccc(/C=C/C(=O)c2ccc(C3CCCCC3)cc2)cc1", "Potency": "inconclusive [inhibitor, single point]"},
      {"smiles": "Cc1ccc([C@@H]2[C@@H]3C(=O)N(C)C(=O)[C@@H]3[C@]3(C)C(=O)N(Cc4ccccc4)CC(=O)N23)o1", "Potency": "inconclusive [inhibitor, partial curve, poor fit]"},
      {"smiles": "C=CCOc1c2ccc(C(=O)NC3CCCc4ccccc43)cc2nn1C", "note": "(stereo unspecified)", "activity change, negative = inhibition": "inactive: 9.68%"},
      {"smiles": "O=C1CCN(Cc2ccccc2)CCN1[C@H](COc1ccccc1)Cc1ccccc1", "Potency": "inconclusive [inhibitor, partial curve, poor fit]"},
      {"smiles": "CCN(CC)c1ccc(/C=N/NC(=O)c2cnccn2)c(O)c1", "Potency": "inconclusive [inhibitor, partial curve]"},
      {"smiles": "COc1cc2c(cc1OC)C(C)N(S(=O)(=O)c1ccc(C)cc1)CC2", "note": "(stereo unspecified)", "Potency": "inconclusive [inhibitor, partial curve, poor fit]"},
      {"smiles": "Cc1cc(C(=O)CCl)c(C)n1CCc1ccc(Cl)cc1", "Potency": "inconclusive [inhibitor, single point]"},
      {"smiles": "COc1ccc(CNc2nc(NCc3ccc(OC)cc3)n(C(=O)c3ccccc3[N+](=O)[O-])n2)cc1", "Potency": "inconclusive [inhibitor, partial curve, poor fit]"},
      {"smiles": "CC(C)Cn1c([N+](=O)[O-])nc2c1c(=O)[nH]c(=O)n2C", "Potency": "inconclusive [inhibitor, single point]"},
      {"smiles": "CCCOc1ccc(C(=O)N2CCN(c3ccc(N)cc3Cl)CC2)cc1", "Potency": "inconclusive [inhibitor, single point]"},
      {"smiles": "CCN(Cc1ccccc1)S(=O)(=O)c1ccc(C(=O)N(CCCN(C)C)c2nc3cc4c(cc3s2)OCO4)cc1", "Potency": "inconclusive [inhibitor, single point]"},
      {"smiles": "O=C(CSc1ccc2nnc(-c3cccnc3)n2n1)N1CCc2ccccc21", "activity change, negative = inhibition": "inactive: 7.3%"},
      {"smiles": "COC(=O)c1ccc(COC(=O)c2c(C)nn(Cc3ccccc3Cl)c2Cl)o1", "Potency": "inconclusive [inhibitor, single point]"},
      {"smiles": "Cc1ccc(NC(=O)CCCCCNS(=O)(=O)c2ccc(C)cc2)cc1", "Potency": "inconclusive [inhibitor, partial curve, poor fit]"},
      {"smiles": "Cc1ccc(OCC(=O)N2CCC(Cc3ccccc3)CC2)c([N+](=O)[O-])n1", "Potency": "inconclusive [inhibitor, partial curve, poor fit]"},
      {"smiles": "O=S(=O)(NCC1CCN(c2ccc(S(=O)(=O)N3CCOCC3)cc2)CC1)c1ccc(F)cc1", "Potency": "inconclusive [inhibitor, partial curve]"},
      {"smiles": "CCOc1ccc2nc3c(cc2c1)CN(CCCO)C(=NCCOC)S3", "activity change, negative = inhibition": "inactive: 10.8%"},
      {"smiles": "Cc1nc2scc(-c3ccc(C(C)(C)C)cc3)c2c(=O)n1N", "activity change, negative = inhibition": "inactive: 17.5%"},
      {"smiles": "Cc1cc(C)cc(NC(=O)C(c2ccccc2)N2CCN(CC(=O)N3CCCC3)CC2)c1", "note": "(stereo unspecified)", "Potency": "inconclusive [inhibitor, single point]"},
      {"smiles": "CCCc1nc(NCCCOCC)c2nnn(Cc3ccccc3)c2n1", "activity change, negative = inhibition": "inactive: 5.34%"},
      {"smiles": "O=C(N/N=C\\c1cc(Br)c(Br)o1)C1COc2ccccc2O1", "note": "(stereo unspecified)", "Potency": "inconclusive [inhibitor, single point]"},
      {"smiles": "CCC(=O)Nc1cccc(NC(=O)c2ccc3c(c2)OCCO3)c1", "activity change, negative = inhibition": "inactive: 69.2%"},
      {"smiles": "CCOc1ccc(C(=O)NCCNC(=O)c2ccc(OCC)cc2)cc1", "Potency": "inconclusive [inhibitor, full curve, poor fit]"},
      {"smiles": "COc1ccccc1NS(=O)(=O)c1ccc(C)c(C(=O)NC2CCN(Cc3ccccc3)CC2)c1", "Potency": "active: 10.4 µM"},
      {"smiles": "Cc1cccc2nc(=S)n(C(=O)c3ccco3)n12", "activity change, negative = inhibition": "inactive: 108%"},
      {"smiles": "Cc1cccc(C)c1NC(=O)CN(C)C(=O)c1cccc(-n2cccc2)c1", "Potency": "inconclusive [inhibitor, single point]"},
      {"smiles": "C#Cc1ccc(CN2CCC(Oc3cc(C(=O)NC4CC4)ccc3OC)CC2)cc1", "Potency": "active: 13.1 µM"},
      {"smiles": "Cc1[nH]nc2c1C(c1ccsc1)C1=C(CC(C)(C)CC1=O)N2", "note": "(stereo unspecified)", "Potency": "inconclusive [inhibitor, single point]"},
      {"smiles": "O=C(CN1CCN(Cc2ccccc2)CC1)N/N=C/c1ccco1", "Potency": "inconclusive [inhibitor, full curve, poor fit]"},
      {"smiles": "CC[n+]1c(/C=C2\\C=C(C)CC(C)C2)sc2ccccc21", "note": "(stereo unspecified)", "Potency": "inconclusive [inhibitor, full curve, poor fit]"},
      {"smiles": "COc1ccc(C(=O)NC2CC3CCCC(C2)N3CC(C)C)cc1", "note": "(stereo unspecified)", "activity change, negative = inhibition": "inactive: -5.36%"},
      {"smiles": "CNc1ccc(/C=C/C(=O)c2cccc3ccccc23)cc1[N+](=O)[O-]", "Potency": "inconclusive [inhibitor, single point]"},
      {"smiles": "Cc1ccc(CC(=O)Nc2cc([N+](=O)[O-])ccc2F)cc1", "activity change, negative = inhibition": "inactive: 20.6%"},
      {"smiles": "Cc1cc(C)c(C#N)c(SCC(=O)Nc2ccc(S(=O)(=O)Nc3onc(C)c3C)cc2)n1", "activity change, negative = inhibition": "inactive: -13.3%"},
      {"smiles": "CN(C(=O)CN1C(=O)/C(=C/c2ccc(Cl)cc2)SC1=S)C1CCS(=O)(=O)C1", "note": "(stereo unspecified)", "activity change, negative = inhibition": "inactive: -0.4%"},
      {"smiles": "CCOC(=O)N1CCN(C(=O)CN(c2ccc(C)cc2)S(=O)(=O)c2c(C)noc2C)CC1", "activity change, negative = inhibition": "inactive: -9.57%"},
      {"smiles": "COC(=O)C1=C(c2ccc(C(C)=O)cc2)C[C@@H]2CC[C@H]1N2C(=O)N1CCOCC1", "Potency": "inconclusive [inhibitor, single point]"},
      {"smiles": "CN1C(=O)C(CC(=O)Nc2ccc(Cl)cc2)N(Cc2ccco2)C1=S", "note": "(stereo unspecified)", "Potency": "inconclusive [inhibitor, single point]"},
      {"smiles": "CCOc1ccc(N2CC(C(=O)NCCCc3ccccc3)CC2=O)cc1", "note": "(stereo unspecified)", "Potency": "inconclusive [inhibitor, partial curve]"},
      {"smiles": "Cc1ccc(NC(=O)C(=O)NCC2CCCN2S(=O)(=O)c2cccs2)cc1", "note": "(stereo unspecified)", "Potency": "inconclusive [inhibitor, single point]"},
      {"smiles": "Cc1cc(NCCN(C)C)n2nc(-c3cccs3)cc2n1", "Potency": "inconclusive [inhibitor, single point]"},
      {"smiles": "CC(=O)c1cccc(NS(=O)(=O)c2ccc(-c3cc(C)no3)s2)c1", "activity change, negative = inhibition": "inactive: 14.4%"},
      {"smiles": "Nc1nonc1-n1nnc(C(=O)N/N=C/c2cccnc2)c1-c1ccccc1", "Potency": "inconclusive [inhibitor, single point]"},
      {"smiles": "CSCc1ccc(C(=O)N2CCCC(Nc3ccc(F)cc3)C2)o1", "note": "(stereo unspecified)", "Potency": "inconclusive [inhibitor, single point]"}
    ]}
  ]
}
